# This is one part of the list. Most values come without repeats; read them as rough.
# Test system: Candida albicans DPL-15
# Assay: growth (OD600) after compound treatment (apparently relative to screen median) (relative growth (fraction; screen median 1.02)); DPL-15 is a caspofungin-resistant clinical isolate; higher = more fungal growth (less antifungal activity)
# Conditions: 25 µM; RPMI 1640; 48 h; 30 °C
row,Structure (SMILES),growth
1,COc1cc(O)c(C(=O)[C@@H]2CC=C(C)C[C@H]2c2ccccc2)c(O)c1,0.99
2,COC(=O)C1=C(C)N(Cc2ccccc2)C(=S)NC1c1ccc(F)cc1 (configuration not stated),0.941
3,CC(=O)C1=C(C)N(Cc2ccc(F)cc2)C(=S)NC1c1ccccc1 (configuration not stated),1.02
4,CC(C)c1c2c(nn1C)C(=O)N(c1ccccc1)C2c1cccc(C(F)(F)F)c1 (configuration not stated),1.14
5,COc1ccc(C2NC(=S)NC(C)=C2C(C)=O)cc1 (configuration not stated),0.986
6,CC(C)Cc1c2c(nn1Cc1ccccc1)C(=O)NC2c1ccc(F)cc1 (configuration not stated),0.995
7,O=c1ccoc(CC23CCOC2Nc2ccccc23)c1O (configuration not stated),1.44
8,O=C1C=C(c2ccccc2)CC1c1ccccc1 (configuration not stated),0.946
9,C[C@@H]1/C=C\CC(=O)OCCCCCC(=O)N[C@@H]1c1ccccc1,1.12
10,COc1ccccc1Cn1nc(C(C)C)c2c1C(=O)NC2c1ccc(F)cc1 (configuration not stated),0.98
11,COC(=O)C1=C[C@@H]([C@@H](C)[C@H](OC)c2ccccc2Br)[C@@H]2OCC[C@H]12,1.07
12,CC(C)CCCC(C)(CCOS(=O)(=O)NC(C)(C)C)CCC(=O)OC(C)(C)C (configuration not stated),0.996
13,CC(C)Cn1nc(-c2ccccc2)cc1Nc1cc(O)cc(O)c1C(=O)N1Cc2cn[nH]c2C1,1.09
14,CC(C)Cc1n[nH]c2c1C(c1ccccc1Br)N(c1ccc(F)cc1)C2=O (configuration not stated),1.07
15,CC(C)Cc1n[nH]c2c1C(c1ccccc1Cl)N(c1ccc(F)cc1)C2=O (configuration not stated),1.33
16,C=CC[C@]12C[C@@]3(O[C@H](C(C)C)N=C3C[C@H](c3ccc(OC)cc3)[C@H]1C)N(Cc1ccncc1)C2=O,1.02
17,CCC[C@@H](O)COc1cc2c(cc1C1(c3cc4c(cc3OC[C@H](O)CCC)OCO4)C(=O)Nc3cc(F)ccc31)OCO2,1.01
18,C=CC[C@@]12C(=O)N(C)[C@@](O)(c3ccccc3)[C@@H]1[C@]1([C@H](COC)OC)c3ccccc3[C@H]2c2ccccc21,1.24
19,CC(=O)OC[C@H]1O[C@H](c2cc(C)cc(C)c2)C=C[C@H]1OC(C)=O,1.04
20,CC(C)[C@@H]1N=C2C[C@H](c3ccccc3)[C@@H](C)[C@@H]3C[C@@]2(O1)N(Cc1ccco1)C3=O,0.704
21,CCOC(=O)CN1C(=O)N[C@@H](c2cccc(C(F)(F)F)c2)[C@H](C(C)=O)[C@H]1C,0.954
22,COC(=O)C1=C(C)N(CCc2cccs2)C(=S)NC1c1ccc(C)cc1 (configuration not stated),0.98
23,CC(=O)C1=C(C)NC(=O)NC1c1ccc(F)cc1 (configuration not stated),1.11

row,Structure (SMILES),growth
1,COc1ccc(Cn2nc(C(C)C)cc2N)cc1,1.25
2,CC(=O)OC[C@H]1O[C@H](C#Cc2cccc(Cl)c2)C=C[C@@H]1OC(C)=O,1.09
3,COc1ccc(CCN2C[C@@]3(O)CC[C@@H](O)[C@@H](OC)[C@@H]3[C@@]2(C)[C@H](O)CC=C(C)C)cc1OC,1.21
4,Cn1nccc1Nc1cc(O)cc(O)c1C(=O)N1CCC(F)(F)C1,1.04
5,CC(C)(C)C[C@@H](O)COc1cc2c(cc1C1(c3cc4c(cc3OC[C@H](O)CC(C)(C)C)OCO4)C(=O)Nc3cc(Br)ccc31)OCO2,0.948
6,COC(=O)C1=C(C)N(Cc2cccc(C(F)(F)F)c2)C(NCc2cccc(C(F)(F)F)c2)=NC1c1cccc(Cl)c1 (configuration not stated),1.13
7,CCC(=O)C[C@@H](NC(=O)OC)c1ccc(F)cc1,0.954
8,O=C1CC2(CCCCC2)CNC(=O)c2cccc(c2)-c2cc(n[nH]2)COCCOCCN1,1.05
9,COC(=O)C1=C(C)N(C)C(NCc2ccc3c(c2)OCO3)=NC1c1ccc(Cl)cc1 (configuration not stated),0.915
10,COc1ccc(-c2cnc3c(-c4ccc(OC)nc4)cnn3c2N)cc1,1.02
11,CC(C)(O)/C=C/C1=C[C@@H](O[Si](C)(C)C(C)(C)C)[C@@H]2O[C@@H]2C12OCCCO2,1.03
12,CCN1C(=S)NC(c2ccc(OC)cc2)C(C(C)=O)=C1C (configuration not stated),0.992
13,C[C@@H]1/C=C/CC(=O)OCc2ccccc2CC(=O)N[C@@H]1c1cccc(Br)c1,1.07
14,COC(=O)[C@H]1C(=O)[C@@]2(NN(C)C)c3c(OC)cc(OC)cc3O[C@@]2(c2ccc(OC)cc2)[C@@H]1c1ccccc1,1.42
15,C[C@H]1C=C(Br)[C@]2(CCCO2)[C@@H]1c1ccccc1,1.19
16,O=C1N[C@@H](c2ccccc2)COCc2cc([nH]n2)-c2ccccc2-c2cccc(c2)C(=O)N2C[C@H](O)C[C@@H]12,0.821
17,CC(C)Cc1nn(Cc2ccccc2)c2c1C(c1ccc3c(c1)OCO3)NC2=O (configuration not stated),1.16
18,COC(=O)C/C=C/[C@H](C)[C@@H](NC(=O)[C@@H](Cc1ccccc1)NC(=O)OC(C)(C)C)c1ccccc1,0.984
19,COc1cc2c(cc1C1(c3cc4c(cc3OC)OCO4)C(=O)Nc3cc(F)ccc31)OCO2,1.14
20,CC(C)CC1=NCCNC2=C1C(c1ccc(F)cc1)N(c1ccccc1)C2=O (configuration not stated),0.942
21,CC(=O)OC[C@H]1O[C@H](c2ccc(-c3ccccc3)cc2)C=C[C@@H]1OC(C)=O,0.867
22,CO[C@H]1CCN(C(=O)c2c(O)cc(O)cc2NC2Cc3ccccc3C2)C1,1.09
23,O=C(O)[C@H](Cc1ccccc1)n1nnc(-c2ccccc2)c1C#Cc1ccccc1,1.47

row,Structure (SMILES),growth
1,CC1=NCCNC2=C1C(c1ccc3c(c1)OCO3)N(Cc1ccccc1)C2=O (configuration not stated),1.03
2,Cc1ccc(C2NC(=O)c3c2c(C)nn3-c2ccc(F)cc2)cc1 (configuration not stated),1.18
3,COc1ccc(C[C@H]2COC(=O)[C@@H]2Cc2ccc(OC)c(OC)c2)cc1OC,0.951
4,COC(=O)c1[nH]c2ccccc2c1[C@]12CCN(C(=O)Cc3cc(F)cc(F)c3)[C@H]1Nc1ccccc12,1.05
5,COc1ccc(/C=C/NC(=O)c2ccc(OC)cc2)cc1,1.1
6,Cc1nn(-c2ccc(F)cc2)c2c1C(c1ccc(F)cc1)NC2=O (configuration not stated),1.01
7,CC1=NCCNC2=C1C(c1ccccc1)N(Cc1ccccc1)C2=O (configuration not stated),1.03
8,CN(Cc1ccccc1)C(=O)c1c(O)cc(O)cc1CC(=O)CC(C)(C)C,0.822
9,CCc1cc2c(nc1CC)CCCN2S(=O)(=O)c1cccs1,0.87
10,C=CCN1C(=O)C2=C(C(C)=NCCN2)C1c1ccccc1 (configuration not stated),0.941
11,C=CC1(CO)C=C(C)C2c3c(cc(O[Si](C(C)C)(C(C)C)C(C)C)cc3C(O[Si](C)(C)C(C)(C)C)[C@@H]2C)N1 (some centres not stated),0.938
12,COc1ccc(N2C(=O)c3[nH]nc(CC(C)C)c3C2c2cncs2)cc1 (configuration not stated),1.02
13,C=C(C)CCCN1C=C(C(=O)OCC)C(c2ccccc2)NC1=O (configuration not stated),1.05
14,O=c1ccoc(CC23CCCCC2=Nc2ccc(Cl)cc23)c1O (configuration not stated),0.75
15,COc1cc(C)c(I)c(O)c1C(C)=O,0.97
16,CC(C)OC1=CC(=O)C(C)(C)C(=O)C1(C)C,1.14
17,COc1cc2c(c(OC)c1OC)[C@@]1(c3ccccc3)CCCCC[C@H]1[C@@H]2NC(=O)C(F)(F)F,1.17
18,CO[C@@H]1[C@H](O)CC[C@]2(O)CN(CCc3ccccn3)[C@](C)([C@H](O)CC=C(C)C)[C@@H]12,1.18
19,O=C1CC2(CCCCC2)CNC(=O)c2cccc(c2)-c2cc(n[nH]2)CCCCCCN1,0.956
20,COC(=O)C(CC(C)(C)CCOS(=O)(=O)NC(C)(C)C)N(C(=O)OC(C)(C)C)C(=O)OC(C)(C)C (configuration not stated),1.04
21,Cc1cc(C)cc(-n2nc(C(C)C)c3c2C(=O)NC3c2ccc(F)cc2)c1 (configuration not stated),0.997

# Reference: the supplement of paper PMC10986608
